In the supplement of paper PMC4604168 (melanoma cell lines):
Some of the results follow. Single values are uncertain, as repeats are few or missing.

Assays:
Assay in all cases: cell count relative to DMSO control; melanoma cells; higher = more viable cells
Conditions in all cases: library dose: standard library concentration; 72 h
[1] = tested on: A101D
[2] = tested on: A2058
[3] = tested on: A375
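Note: cells treated in 1,536-well plates, then fixed and DAPI-stained, with nuclei counted from automated high-throughput microscope images.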

Row | SMILES | cell count [1] | cell count [2] | cell count [3]
1 | CNC(=O)c1cc(Oc2ccc(NC(=O)Nc3ccc(Cl)c(C(F)(F)F)c3)cc2)ccn1 [sorafenib] + CO[C@@H]1[C@H](N(C)C(=O)c2ccccc2)C[C@H]2O[C@]1(C)n1c3ccccc3c3c4c(c5c6ccccc6n2c5c31)C(=O)NC4 [Midostaurin] (first compound 2 µM, partner dose 0.4 µM) | 58.1% | 37.9% | 75%
2 | CS(=O)(=O)CCNCc1ccc(-c2ccc3ncnc(Nc4ccc(OCc5cccc(F)c5)c(Cl)c4)c3c2)o1 [lapatinib] + COc1cc2c(Oc3ccc4[nH]c(C)cc4c3F)ncnc2cc1OCCCN1CCCC1 [cediranib] (first compound 4 µM, partner dose 2 µM) | 66.6% | 65% | 113%
3 | C[C@@H](Oc1cc(-c2cnn(C3CCNCC3)c2)cnc1N)c1c(Cl)ccc(F)c1Cl [Crizotinib] + CNC(=O)c1cc(Oc2ccc(NC(=O)Nc3ccc(Cl)c(C(F)(F)F)c3)cc2)ccn1 [sorafenib] (first compound 1 µM, partner dose 2 µM) | 79.2% | 82.8% | 113%
4 | CN1CCN(c2ccc3nc(-c4c(N)c5c(F)cccc5[nH]c4=O)[nH]c3c2)CC1 [Dovitinib] + Nc1nc(F)nc2c1ncn2[C@@H]1O[C@H](CO)[C@@H](O)[C@@H]1O [fludarabine] (first compound 0.5 µM, partner dose 1 µM) | 69.7% | 21.2% | 43.9%
5 | CS(=O)(=O)CCNCc1ccc(-c2ccc3ncnc(Nc4ccc(OCc5cccc(F)c5)c(Cl)c4)c3c2)o1 [lapatinib] + C[C@]1(c2nc3c(C(N)=O)cccc3[nH]2)CCCN1 [Veliparib] (first compound 4 µM, partner dose 7 µM) | 72.9% | 73% | 108%
6 | CS(=O)(=O)CCNCc1ccc(-c2ccc3ncnc(Nc4ccc(OCc5cccc(F)c5)c(Cl)c4)c3c2)o1 [lapatinib] + Nc1cccc2c1CN(C1CCC(=O)NC1=O)C2=O [lenalidomide] (first compound 4 µM, partner dose 5 µM) | 79.7% | 99.4% | 124%
7 | C[C@@H](Oc1cc(-c2cnn(C3CCNCC3)c2)cnc1N)c1c(Cl)ccc(F)c1Cl [Crizotinib] + O=C(O)c1ccc(-c2c[nH]c3ncc(-c4ccccc4)cc23)cc1C1CCCC1 [GSK650394] (first compound 1 µM, partner dose 0.8 µM) | 79.6% | 91.2% | 106%
8 | CS(=O)(=O)CCNCc1ccc(-c2ccc3ncnc(Nc4ccc(OCc5cccc(F)c5)c(Cl)c4)c3c2)o1 [lapatinib] + CC(=O)c1c(C)c2cnc(Nc3ccc(N4CCNCC4)cn3)nc2n(C2CCCC2)c1=O [palbociclib] (first compound 4 µM, partner dose 0.2 µM) | 66% | 87% | 73.6%
9 | CNC(=O)c1cc(Oc2ccc(NC(=O)Nc3ccc(Cl)c(C(F)(F)F)c3)cc2)ccn1 [sorafenib] + O=C(CCCCCCC(=O)Nc1ccccc1)NO [vorinostat] (first compound 2 µM, partner dose 0.4 µM) | 79.7% | 110% | 107%
10 | CN1CCN(c2ccc3nc(-c4c(N)c5c(F)cccc5[nH]c4=O)[nH]c3c2)CC1 [Dovitinib] + COCC[n+]1c2c(n(Cc3cnccn3)c1C)C(=O)c1ccccc1C2=O [YM155] (first compound 0.5 µM, partner dose 0.002 µM) | 66.5% | 18.9% | 66%
11 | CN1CCN(c2ccc3nc(-c4c(N)c5c(F)cccc5[nH]c4=O)[nH]c3c2)CC1 [Dovitinib] + CS(=O)(=O)CCNCc1ccc(-c2ccc3ncnc(Nc4ccc(OCc5cccc(F)c5)c(Cl)c4)c3c2)o1 [lapatinib] (first compound 0.5 µM, partner dose 4 µM) | 57.8% | 28.9% | 104%
12 | CS(=O)(=O)CCNCc1ccc(-c2ccc3ncnc(Nc4ccc(OCc5cccc(F)c5)c(Cl)c4)c3c2)o1 [lapatinib] + Cn1nnc2c(C(N)=O)ncn2c1=O [temozolomide] (first compound 4 µM, partner dose 10 µM) | 54.4% | 34.8% | 137%
13 | C=CCNC1=C2C[C@@H](C)C[C@H](OC)[C@H](O)[C@@H](C)/C=C(\C)[C@H](OC(N)=O)[C@@H](OC)/C=C\C=C(/C)C(=O)NC(=CC1=O)C2=O [Tanespimycin] + C#Cc1cccc(Nc2ncnc3cc(OCCOC)c(OCCOC)cc23)c1 [erlotinib] (first compound 0.01 µM, partner dose 4 µM) | 68.4% | 66.9% | 112%
14 | C[C@@H](Oc1cc(-c2cnn(C3CCNCC3)c2)cnc1N)c1c(Cl)ccc(F)c1Cl [Crizotinib] + C=CCn1c(=O)c2cnc(Nc3ccc(N4CCN(C)CC4)cc3)nc2n1-c1cccc(C(C)(C)O)n1 [MK1775] (first compound 1 µM, partner dose 0.1 µM) | 65.8% | 63.3% | 67.8%
15 | CNC(=O)c1cc(Oc2ccc(NC(=O)Nc3ccc(Cl)c(C(F)(F)F)c3)cc2)ccn1 [sorafenib] + Cc1ccc(NC(=O)c2cccc(N(C)C)c2)cc1NC(=O)c1ccc(O)cc1 [ZM336372] (first compound 2 µM, partner dose 10 µM) | 94.2% | 118% | 104%
16 | C=CCNC1=C2C[C@@H](C)C[C@H](OC)[C@H](O)[C@@H](C)/C=C(\C)[C@H](OC(N)=O)[C@@H](OC)/C=C\C=C(/C)C(=O)NC(=CC1=O)C2=O [Tanespimycin] + COc1cc(Nc2ncc(F)c(Nc3ccc4c(n3)NC(=O)C(C)(C)O4)n2)cc(OC)c1OC [Tamatinib] (first compound 0.01 µM, partner dose 2 µM) | 29.5% | 64.8% | 101%
17 | CS(=O)(=O)CCNCc1ccc(-c2ccc3ncnc(Nc4ccc(OCc5cccc(F)c5)c(Cl)c4)c3c2)o1 [lapatinib] + COc1cc(Nc2ncc(F)c(Nc3ccc4c(n3)NC(=O)C(C)(C)O4)n2)cc(OC)c1OC [Tamatinib] (first compound 4 µM, partner dose 2 µM) | 30.2% | 58.5% | 105%
18 | CNC(=O)c1cc(Oc2ccc(NC(=O)Nc3ccc(Cl)c(C(F)(F)F)c3)cc2)ccn1 [sorafenib] + Cn1nnc2c(C(N)=O)ncn2c1=O [temozolomide] (first compound 2 µM, partner dose 10 µM) | 78.8% | 58% | 86.9%
19 | C=CCNC1=C2C[C@@H](C)C[C@H](OC)[C@H](O)[C@@H](C)/C=C(\C)[C@H](OC(N)=O)[C@@H](OC)/C=C\C=C(/C)C(=O)NC(=CC1=O)C2=O [Tanespimycin] + Cc1nc(Nc2ncc(C(=O)Nc3c(C)cccc3Cl)s2)cc(N2CCN(CCO)CC2)n1 [dasatanib] (first compound 0.01 µM, partner dose 0.02 µM) | 61.5% | 67% | 77.3%
20 | C=CCNC1=C2C[C@@H](C)C[C@H](OC)[C@H](O)[C@@H](C)/C=C(\C)[C@H](OC(N)=O)[C@@H](OC)/C=C\C=C(/C)C(=O)NC(=CC1=O)C2=O [Tanespimycin] + O=C(CCCCCCC(=O)Nc1ccccc1)NO [vorinostat] (first compound 0.01 µM, partner dose 0.4 µM) | 72.5% | 92.3% | 97.3%
21 | C=CCNC1=C2C[C@@H](C)C[C@H](OC)[C@H](O)[C@@H](C)/C=C(\C)[C@H](OC(N)=O)[C@@H](OC)/C=C\C=C(/C)C(=O)NC(=CC1=O)C2=O [Tanespimycin] + COc1ccc(Cl)c(Nc2nc3ccccc3nc2NS(=O)(=O)c2cccc(NC(=O)C(C)(C)N)c2)c1 [XL147] (first compound 0.01 µM, partner dose 4 µM) | 88.7% | 78.2% | 71.6%
22 | CS(=O)(=O)CCNCc1ccc(-c2ccc3ncnc(Nc4ccc(OCc5cccc(F)c5)c(Cl)c4)c3c2)o1 [lapatinib] + Nc1nc(F)nc2c1ncn2[C@@H]1O[C@H](CO)[C@@H](O)[C@@H]1O [fludarabine] (first compound 4 µM, partner dose 1 µM) | 72.3% | 74.7% | 45.8%
23 | CN1CCN(c2ccc3nc(-c4c(N)c5c(F)cccc5[nH]c4=O)[nH]c3c2)CC1 [Dovitinib] + O=C(O)c1ccc2c(c1)nc(Nc1cccc(Cl)c1)c1ccncc12 [CX4945] (first compound 0.5 µM, partner dose 2 µM) | 73.2% | 38.3% | 55.9%
24 | C[C@@H](Oc1cc(-c2cnn(C3CCNCC3)c2)cnc1N)c1c(Cl)ccc(F)c1Cl [Crizotinib] + CS(=O)(=O)CCNCc1ccc(-c2ccc3ncnc(Nc4ccc(OCc5cccc(F)c5)c(Cl)c4)c3c2)o1 [lapatinib] (first compound 1 µM, partner dose 4 µM) | 33.4% | 61.2% | 135%
25 | C=CCNC1=C2C[C@@H](C)C[C@H](OC)[C@H](O)[C@@H](C)/C=C(\C)[C@H](OC(N)=O)[C@@H](OC)/C=C\C=C(/C)C(=O)NC(=CC1=O)C2=O [Tanespimycin] + CC(C)(C)c1cnc(CSc2cnc(NC(=O)C3CCNCC3)s2)o1 [SNS-032] (first compound 0.01 µM, partner dose 0.05 µM) | 80.6% | 65.9% | 82.3%
26 | C=CCNC1=C2C[C@@H](C)C[C@H](OC)[C@H](O)[C@@H](C)/C=C(\C)[C@H](OC(N)=O)[C@@H](OC)/C=C\C=C(/C)C(=O)NC(=CC1=O)C2=O [Tanespimycin] + Clc1ccc(Nc2nnc(Cc3ccncc3)c3ccccc23)cc1 [vatalanib] (first compound 0.01 µM, partner dose 10 µM) | 56.8% | 74.7% | 85.2%
